Laboratory results: paper PMC9911399, “Two distinct binding modes provide the RNA-binding protein RbFox with extraordinary sequence specificity”
Positions count from the first letter of the chain named. This is one part of the list.

T1: RBFOX1 RRM RbFoxmut (Fox-RRM*) (Homo sapiens, UniProt Q9NWB1 109-208, R118D;E147R;N151S;E152T)
T1 sequence: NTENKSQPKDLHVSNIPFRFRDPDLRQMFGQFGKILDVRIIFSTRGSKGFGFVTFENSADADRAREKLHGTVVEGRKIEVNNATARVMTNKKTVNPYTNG

B1: AACGCGG (DNA:RNA)
RNA: GGGAGACCGGAAUUCAGAUUGUCCAACGCGGUUAAAUCCCGUCGUAGCCACCA
DNA 1: CAATCTGAATTCCGGTCTCCC
DNA 2: TGGTGGCTACGACGGGATT
B2: CCUCGAA (DNA:RNA)
RNA: GGGAGACCGGAAUUCAGAUUGUCCCCUCGAAUUAAAUCCCGUCGUAGCCACCA
DNA 1: CAATCTGAATTCCGGTCTCCC
DNA 2: TGGTGGCTACGACGGGATT
B3: CGGUACU (DNA:RNA)
RNA: B2 RNA with C26G, U27G, C28U, G29A, A30C, A31U
DNA 1: CAATCTGAATTCCGGTCTCCC
DNA 2: TGGTGGCTACGACGGGATT
B4: UAUGAGU (DNA:RNA)
RNA: B1 RNA with A25U, C27U, C29A, G31U
DNA 1: CAATCTGAATTCCGGTCTCCC
DNA 2: TGGTGGCTACGACGGGATT
B5: ACGUCAA (DNA:RNA)
RNA: B2 RNA with C25A, U27G, C28U, G29C
DNA 1: CAATCTGAATTCCGGTCTCCC
DNA 2: TGGTGGCTACGACGGGATT
B6: AUGUUAU (DNA:RNA)
RNA: B1 RNA with A26U, C27G, G28U, C29U, G30A, G31U
DNA 1: CAATCTGAATTCCGGTCTCCC
DNA 2: TGGTGGCTACGACGGGATT
B7: ACAUACU (DNA:RNA)
RNA: B1 RNA with A26C, C27A, G28U, C29A, G30C, G31U
DNA 1: CAATCTGAATTCCGGTCTCCC
DNA 2: TGGTGGCTACGACGGGATT
B8: UGCCCUU (DNA:RNA)
RNA: B1 RNA with A25U, A26G, G28C, G30U, G31U
DNA 1: CAATCTGAATTCCGGTCTCCC
DNA 2: TGGTGGCTACGACGGGATT
B9: AAAUGAG (DNA:RNA)
RNA: B1 RNA with C27A, G28U, C29G, G30A
DNA 1: CAATCTGAATTCCGGTCTCCC
DNA 2: TGGTGGCTACGACGGGATT
B10: UAAGUCC (DNA:RNA)
RNA: B1 RNA with A25U, C27A, C29U, G30C, G31C
DNA 1: CAATCTGAATTCCGGTCTCCC
DNA 2: TGGTGGCTACGACGGGATT
B11: UCGCCAA (DNA:RNA)
RNA: B2 RNA with C25U, U27G, G29C
DNA 1: CAATCTGAATTCCGGTCTCCC
DNA 2: TGGTGGCTACGACGGGATT
B12: GGCGGAA (DNA:RNA)
RNA: B2 RNA with C25G, C26G, U27C, C28G
DNA 1: CAATCTGAATTCCGGTCTCCC
DNA 2: TGGTGGCTACGACGGGATT
B13: GACCACA (DNA:RNA)
RNA: B1 RNA with A25G, G28C, C29A, G30C, G31A
DNA 1: CAATCTGAATTCCGGTCTCCC
DNA 2: TGGTGGCTACGACGGGATT
B14: UUCACAC (DNA:RNA)
RNA: B1 RNA with A25U, A26U, G28A, G30A, G31C
DNA 1: CAATCTGAATTCCGGTCTCCC
DNA 2: TGGTGGCTACGACGGGATT
B15: ACGAUUC (DNA:RNA)
RNA: B1 RNA with A26C, C27G, G28A, C29U, G30U, G31C
DNA 1: CAATCTGAATTCCGGTCTCCC
DNA 2: TGGTGGCTACGACGGGATT
B16: UGCUGUA (DNA:RNA)
RNA: B2 RNA with C25U, C26G, U27C, C28U, A30U
DNA 1: CAATCTGAATTCCGGTCTCCC
DNA 2: TGGTGGCTACGACGGGATT
B17: CUAGAGA (DNA:RNA)
RNA: B1 RNA with A25C, A26U, C27A, C29A, G31A
DNA 1: CAATCTGAATTCCGGTCTCCC
DNA 2: TGGTGGCTACGACGGGATT
B18: GCCAAAU (DNA:RNA)
RNA: B2 RNA with C25G, U27C, C28A, G29A, A31U
DNA 1: CAATCTGAATTCCGGTCTCCC
DNA 2: TGGTGGCTACGACGGGATT
B19: GCGGUAU (DNA:RNA)
RNA: B2 RNA with C25G, U27G, C28G, G29U, A31U
DNA 1: CAATCTGAATTCCGGTCTCCC
DNA 2: TGGTGGCTACGACGGGATT
B20: AUGAGCA (DNA:RNA)
RNA: B2 RNA with C25A, C26U, U27G, C28A, A30C
DNA 1: CAATCTGAATTCCGGTCTCCC
DNA 2: TGGTGGCTACGACGGGATT
B21: UGCCGGG (DNA:RNA)
RNA: B1 RNA with A25U, A26G, G28C, C29G
DNA 1: CAATCTGAATTCCGGTCTCCC
DNA 2: TGGTGGCTACGACGGGATT
B22: GUAAAAU (DNA:RNA)
RNA: B2 RNA with C25G, C26U, U27A, C28A, G29A, A31U
DNA 1: CAATCTGAATTCCGGTCTCCC
DNA 2: TGGTGGCTACGACGGGATT
B23: CUCUUCA (DNA:RNA)
RNA: B2 RNA with C26U, U27C, C28U, G29U, A30C
DNA 1: CAATCTGAATTCCGGTCTCCC
DNA 2: TGGTGGCTACGACGGGATT
B24: GAGGUGU (DNA:RNA)
RNA: B1 RNA with A25G, C27G, C29U, G31U
DNA 1: CAATCTGAATTCCGGTCTCCC
DNA 2: TGGTGGCTACGACGGGATT
B25: GGAAGGG (DNA:RNA)
RNA: B1 RNA with A25G, A26G, C27A, G28A, C29G
DNA 1: CAATCTGAATTCCGGTCTCCC
DNA 2: TGGTGGCTACGACGGGATT
B26: GCGUUUU (DNA:RNA)
RNA: B2 RNA with C25G, U27G, C28U, G29U, A30U, A31U
DNA 1: CAATCTGAATTCCGGTCTCCC
DNA 2: TGGTGGCTACGACGGGATT
B27: CCCACUU (DNA:RNA)
RNA: B1 RNA with A25C, A26C, G28A, G30U, G31U
DNA 1: CAATCTGAATTCCGGTCTCCC
DNA 2: TGGTGGCTACGACGGGATT
B28: AUGAGCC (DNA:RNA)
RNA: B1 RNA with A26U, C27G, G28A, C29G, G30C, G31C
DNA 1: CAATCTGAATTCCGGTCTCCC
DNA 2: TGGTGGCTACGACGGGATT
B29: CGACCCA (DNA:RNA)
RNA: B2 RNA with C26G, U27A, G29C, A30C
DNA 1: CAATCTGAATTCCGGTCTCCC
DNA 2: TGGTGGCTACGACGGGATT
B30: ACUGACU (DNA:RNA)
RNA: B1 RNA with A26C, C27U, C29A, G30C, G31U
DNA 1: CAATCTGAATTCCGGTCTCCC
DNA 2: TGGTGGCTACGACGGGATT
B31: UUUGAAC (DNA:RNA)
RNA: B2 RNA with C25U, C26U, C28G, G29A, A31C
DNA 1: CAATCTGAATTCCGGTCTCCC
DNA 2: TGGTGGCTACGACGGGATT

biological target: T1, RBFOX1 RRM RbFoxmut (Fox-RRM*); test: EMSA; HiTS-Eq, 1 nM pool, 10 min; buffer printed only for the single-RNA assays: 10 mM Tris pH 7.5, 150 mM NaCl, 3.4 mM EDTA, 0.001% NP-40, 30 C; conditions: tags: His6 N-terminal (pET28a); label: 5' 32P
Outline: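 Relative association constants, normalised to the cognate motif, were derived by comparing read counts of each RNA species with those of the control reaction. The RNA sequenced was the free fraction, separated by 8% native PAGE after a 10 min equilibration in 50 µL of 1 nM 5′-radiolabelled RNA (7 randomized nucleotides) with increasing concentrations of purified wild-type or mutant RbFox RRM.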

Row | Binder | binding signal
1 | B1 | 0.0791 KA relative to UGCAUGU
2 | B2 | 0.091 KA relative to UGCAUGU
3 | B3 | 0.0851 KA relative to UGCAUGU
4 | B4 | 0.133 KA relative to UGCAUGU
5 | B5 | 0.0727 KA relative to UGCAUGU
6 | B6 | 0.167 KA relative to UGCAUGU
7 | B7 | 0.0924 KA relative to UGCAUGU
8 | B8 | 0.0887 KA relative to UGCAUGU
9 | B9 | 0.108 KA relative to UGCAUGU
10 | B10 | 0.0771 KA relative to UGCAUGU
11 | B11 | 0.0572 KA relative to UGCAUGU
12 | B12 | 0.103 KA relative to UGCAUGU
13 | B13 | 0.0871 KA relative to UGCAUGU
14 | B14 | 0.0833 KA relative to UGCAUGU
15 | B15 | 0.119 KA relative to UGCAUGU
16 | B16 | 0.211 KA relative to UGCAUGU

Row | Binder | binding signal
17 | B17 | 0.064 KA relative to UGCAUGU
18 | B18 | 0.0858 KA relative to UGCAUGU
19 | B19 | 0.136 KA relative to UGCAUGU
20 | B20 | 0.141 KA relative to UGCAUGU
21 | B21 | 0.0889 KA relative to UGCAUGU
22 | B22 | 0.0936 KA relative to UGCAUGU
23 | B23 | 0.097 KA relative to UGCAUGU
24 | B24 | 0.138 KA relative to UGCAUGU
25 | B25 | 0.0512 KA relative to UGCAUGU
26 | B26 | 0.0773 KA relative to UGCAUGU
27 | B27 | 0.0801 KA relative to UGCAUGU
28 | B28 | 0.186 KA relative to UGCAUGU
29 | B29 | 0.0982 KA relative to UGCAUGU
30 | B30 | 0.0912 KA relative to UGCAUGU
31 | B31 | 0.0705 KA relative to UGCAUGU
